Assay results as given in the supplement of paper PMC4967469.
The IC50 comes from the fitted curve, where viability falls to half of the control; a limit (>, <) means that the fit lies beyond the doses tested. AUC is the area under the same curve over the 256-fold range up to the top dose, as a fraction; values near 1 show little effect. For some of these results: A top dose marked as inferred is not printed in the source and was worked back from the curve model. For some of these results: An entry number marks a drug with two screens in the source, which often give different values.

What was measured:
Assay in all cases: Viability of human cancer cell lines after 72 h of drug (GDSC screen)
Vinblastine = compound: CC[C@]1(O)C[C@@H]2CN(CCc3c([nH]c4ccccc34)[C@@](C(=O)OC)(c3cc4c(cc3OC)N(C)[C@H]3[C@@](O)(C(=O)OC)[C@H](OC(C)=O)[C@]5(CC)C=CCN6CC[C@]43[C@@H]65)C2)C1 [Vinblastine]; conditions: top dose 0.1 µM; top dose inferred
Protocol: (§1)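 Human cancer cell lines in 384-well plates, medium with 10% serum, drug for 72 h over a 256-fold dose range (nine 2-fold or five 4-fold steps up to the top dose). Adherent lines were fixed and stained with the nucleic acid dye Syto60, suspension lines read with resazurin; signal relative to control wells, capped at 0 and 100%. One two-parameter sigmoid per drug and line, fitted in a mixed model over all curves with the slope shared within a line.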

SNX-2112 = compound: CC1(C)CC(=O)c2c(C(F)(F)F)nn(-c3ccc(C(N)=O)c(N[C@H]4CC[C@H](O)CC4)c3)c2C1 [SNX-2112]; conditions: top dose 2.56 µM
Protocol: as §1

XMD13-2 = compound: O=C(NC1CC1)c1cccc(-c2ccc3c(NC(=O)C4CC4)n[nH]c3c2)c1 [XMD13-2]; conditions: top dose 10.24 µM; top dose inferred
Protocol: as §1

Afatinib = compound: CN(C)C/C=C/C(=O)Nc1cc2c(Nc3ccc(F)c(Cl)c3)ncnc2cc1O[C@H]1CCOC1 [Afatinib]
Protocol: as §1

[1] = top dose 0.5 µM, screen: GDSC drug entry 1032
[2] = top dose 10 µM, screen: GDSC drug entry 1377, top dose inferred

Row | Cell Line | AUC (Vinblastine) | IC50 (Vinblastine) | AUC (SNX-2112) | IC50 (SNX-2112) | AUC (XMD13-2) | IC50 (XMD13-2) | AUC (Afatinib; [1]) | IC50 (Afatinib; [1]) | AUC (Afatinib; [2]) | IC50 (Afatinib; [2])
1 | JHOS-3 (ovary, adherent) | 0.958 | > 100 nM | 0.894 | > 2560 nM | 0.973 | > 10200 nM | 0.974 | > 500 nM | 0.902 | > 10000 nM
2 | KMS-11 (myeloma, suspension) | 0.474 | 5.37 nM | 0.36 | 69.8 nM | 0.934 | > 10200 nM | 0.991 | > 500 nM | 0.98 | > 10000 nM
3 | KYAE-1 (oesophagus, suspension) | 0.825 | 68.5 nM | 0.396 | 80.1 nM | 0.91 | > 10200 nM | 0.423 | 18.8 nM | 0.294 | 153 nM
4 | MC-IXC (neuroblastoma, adherent) | 0.429 | 4.21 nM | 0.318 | 57.7 nM | 0.933 | 9200 nM | 0.989 | > 500 nM | 0.996 | > 10000 nM
5 | MOLT-13 (T-cell lymphoblastic leukaemia, suspension) | 0.534 | 7.64 nM | 0.461 | 127 nM | 0.644 | 1520 nM |  |  | 0.949 | > 10000 nM
6 | NCC021 (kidney, adherent) | 0.883 | > 100 nM | 0.82 | 1800 nM | 0.959 | > 10200 nM | 0.984 | > 500 nM | 0.978 | > 10000 nM
7 | NCI-H841 (small cell lung carcinoma, adherent) | 0.456 | 4.73 nM | 0.84 | 1770 nM | 0.867 | 9330 nM | 0.941 | > 500 nM | 0.94 | > 10000 nM
8 | NCI-H1734 (lung adenocarcinoma, adherent) | 0.797 | 52.5 nM | 0.819 | 1650 nM | 0.951 | > 10200 nM | 0.933 | > 500 nM |  | 
9 | OACM5-1 (oesophagus, semi-adherent) | 0.885 | > 100 nM | 0.324 | 48.2 nM | 0.873 | > 10200 nM | 0.986 | > 500 nM | 0.985 | > 10000 nM
10 | OACp4C (oesophagus, adherent) | 0.469 | 5.04 nM | 0.409 | 85.5 nM | 0.891 | > 10200 nM | 0.883 | > 500 nM | 0.866 | > 10000 nM
11 | OC-314 (ovary, adherent) | 0.549 | 8.35 nM | 0.812 | 1140 nM | 0.914 | > 10200 nM | 0.958 | > 500 nM | 0.932 | > 10000 nM
12 | OE21 (oesophagus, adherent) | 0.315 | 1.55 nM | 0.789 | 1620 nM | 0.969 | > 10200 nM | 0.438 | 19.8 nM | 0.456 | 455 nM
13 | OV-7 (ovary, adherent) | 0.717 | 35.9 nM | 0.573 | 280 nM | 0.954 | > 10200 nM | 0.952 | > 500 nM | 0.898 | > 10000 nM
14 | OV-17R (ovary, adherent) | 0.958 | > 100 nM | 0.642 | 462 nM | 0.921 | > 10200 nM | 0.948 | > 500 nM | 0.927 | > 10000 nM
15 | OV-56 (ovary, adherent) | 0.699 | 22.1 nM | 0.793 | 1110 nM | 0.955 | > 10200 nM | 0.989 | > 500 nM | 0.969 | > 10000 nM
16 | OVCA420 (ovary, adherent) | 0.971 | > 100 nM | 0.493 | 152 nM | 0.975 | > 10200 nM | 0.58 | 55.8 nM | 0.27 | 109 nM
17 | OVCA433 (ovary, adherent) | 0.665 | 19.1 nM | 0.914 | > 2560 nM | 0.957 | > 10200 nM | 0.931 | > 500 nM | 0.893 | > 10000 nM
18 | OVK-18 (ovary, adherent) | 0.545 | 8.41 nM | 0.972 | > 2560 nM | 0.985 | > 10200 nM | 0.984 | > 500 nM | 0.972 | > 10000 nM
19 | PEO1 (ovary, adherent) | 0.565 | 9.47 nM | 0.923 | > 2560 nM | 0.946 | > 10200 nM | 0.868 | 489 nM | 0.889 | > 10000 nM
20 | QGP-1 (pancreas, adherent) | 0.976 | > 100 nM | 0.494 | 153 nM | 0.846 | > 10200 nM | 0.977 | > 500 nM | 0.954 | > 10000 nM
21 | RCC-AB (kidney, adherent) | 0.891 | > 100 nM | 0.564 | 252 nM | 0.795 | 6470 nM | 0.822 | 415 nM | 0.693 | 2580 nM
22 | RCC-ER (kidney, adherent) | 0.821 | 67.2 nM | 0.986 | > 2560 nM | 0.981 | > 10200 nM | 0.986 | > 500 nM | 0.958 | > 10000 nM
23 | RCC-FG2 (kidney, adherent) | 0.807 | 69.1 nM | 0.696 | 668 nM | 0.954 | > 10200 nM | 0.978 | > 500 nM | 0.874 | > 10000 nM
